# Test results reported in the supplement of paper PMC3334620.
# Whole data set: some 33,000 sequences, median “E-score (-0.5 to 0.5)” near -0.035, cut for the highest 2% near 0.35. The list shows a part of the results.
# Target: T1, Pdr3 (UniProt P33200)
# T1 sequence: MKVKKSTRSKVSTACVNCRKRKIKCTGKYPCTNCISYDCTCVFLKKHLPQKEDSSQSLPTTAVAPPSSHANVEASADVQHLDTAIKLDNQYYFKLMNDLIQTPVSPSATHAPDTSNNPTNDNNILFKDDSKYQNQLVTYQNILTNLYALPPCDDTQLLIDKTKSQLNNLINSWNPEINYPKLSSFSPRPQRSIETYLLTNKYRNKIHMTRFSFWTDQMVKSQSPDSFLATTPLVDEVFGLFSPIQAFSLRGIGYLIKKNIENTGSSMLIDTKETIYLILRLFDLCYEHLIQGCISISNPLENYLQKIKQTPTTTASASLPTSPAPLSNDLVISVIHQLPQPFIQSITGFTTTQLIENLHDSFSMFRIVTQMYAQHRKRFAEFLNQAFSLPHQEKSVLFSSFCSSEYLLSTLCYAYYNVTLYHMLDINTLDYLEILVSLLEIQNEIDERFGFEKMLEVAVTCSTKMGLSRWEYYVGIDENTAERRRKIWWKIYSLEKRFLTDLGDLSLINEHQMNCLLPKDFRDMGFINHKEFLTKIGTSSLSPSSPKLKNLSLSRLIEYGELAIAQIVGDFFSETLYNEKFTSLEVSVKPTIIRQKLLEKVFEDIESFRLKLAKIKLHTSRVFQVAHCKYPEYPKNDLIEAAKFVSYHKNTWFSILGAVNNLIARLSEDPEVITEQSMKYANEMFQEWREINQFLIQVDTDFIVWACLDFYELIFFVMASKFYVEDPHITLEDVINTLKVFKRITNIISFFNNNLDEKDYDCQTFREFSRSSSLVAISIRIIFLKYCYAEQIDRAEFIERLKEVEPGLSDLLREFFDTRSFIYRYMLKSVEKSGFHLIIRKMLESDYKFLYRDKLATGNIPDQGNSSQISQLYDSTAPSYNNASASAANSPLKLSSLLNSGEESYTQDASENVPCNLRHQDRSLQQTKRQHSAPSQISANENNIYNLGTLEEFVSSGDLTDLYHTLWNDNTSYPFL
# Assay: PBM E-score (8-mer binding enrichment) (E-score (-0.5 to 0.5)); higher = stronger / more preferred TF binding; most listed sequences are background and not binding sites
# Details: protein concentration: 200 nM; construct: GST-full length
# Summary of the method: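 PURExpress in vitro transcription/translation supplied GST-tagged yeast transcription factors, either full-length or DNA-binding domain. Applied at about 100-200 nM to universal all-10-mer Agilent arrays double-stranded by primer extension, the bound protein was detected with fluorescent anti-GST. E-scores, modified Wilcoxon-Mann-Whitney statistics, were given by the Universal PBM Analysis Suite to ungapped eight-base words pooled with their reverse complements after masliner normalisation.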
row,Sequence,PBM E-score
1,GCAAATGA,-0.00701
2,AATTTGCT,-0.114
3,CAAATGCA,-0.243
4,TAGTATGA,0.0766
5,CGAAAGAG,0.00908
6,ACCGCTAA,0.00866
7,CATTATCA,-0.167
8,AGACAATA,0.0405
9,AGCGAAAG,-0.111
10,AATTTAAT,0.128
11,GCGAGAGC,0.0738
12,GATTACGC,-0.0604
13,ACCCGGGG,0.357
14,TAGTGGGA,-0.208
15,CCGAGCCA,0.295
16,TCAGGAAA,-0.128
17,ATATTGGA,-0.0572
18,AAGTGATC,-0.176
19,CTCGGTCA,0.00197
20,TACACGCA,-0.342
21,TAAGCCAA,-0.0271
22,ACACAATA,-0.0788

row,Sequence,PBM E-score
1,GACAGTGA,-0.137
2,TACGGACA,0.225
3,AGAATGTC,-0.188
4,ATCTTGTA,-0.0486
5,AGCCTCTG,-0.249
6,GATCTAGA,-0.235
7,ACATCCAT,-0.166
8,AACTAAGA,-0.0143
9,CCCAAAGA,-0.0443
10,CAGGTGTC,-0.105
11,GAAAGCGA,0.0803
12,AACTGCTA,-0.131
13,CCTGTTCC,0.288
14,CGTCGCAC,0.192
15,ACGGGATG,0.283
16,CGGTACGC,0.0104
17,GGGCAGTA,0.0818
18,GGGTCACA,-0.288
19,GGAGCGAA,-0.0691
20,ATGGCATC,-0.0396
21,AGATTTCA,-0.12
22,TATTAAGA,-0.227

row,Sequence,PBM E-score
1,ATCTATTC,0.0306
2,GTATTTGA,-0.294
3,ACCCAGAT,-0.133
4,ATAAGTCC,0.111
5,GACGTGAC,-0.182
6,CGGACGTC,0.147
7,CGCCATAA,-0.037
8,GAGAACAC,-0.119
9,GAACCACA,0.109
10,TCGAAGCA,-0.288
11,AACACCTC,-0.299
12,CGCATCGA,0.0646
13,TATCACCA,-0.0892
14,AGCCAGCT,-0.164
15,GGTACAAA,-0.166
16,CTCGATGA,0.00119
17,AATTGCCA,0.0322
18,CCATAGCG,-0.0119
19,ATTGTCCG,0.339
20,CATGAGCC,-0.215
21,AATCACTA,0.0272
22,ATTGGGGA,-0.108

row,Sequence,PBM E-score
1,CGCAGTAG,-0.0811
2,AGCCTTCA,-0.152
3,CTAGTGAC,-0.102
4,TGCAGCCA,0.0812
5,CTCGCCCA,-0.0292
6,TAAAGCAA,-0.0439
7,CATTGCAA,-0.11
8,AATGCCGT,0.36
9,AGGACGAA,0.163
10,CAGACAGG,-0.046
11,GGCGATCA,0.0313
12,CCTATACC,-0.114
13,AGATTGGA,0.0347
14,CGCCAAAC,-0.00467
15,GAACCTAA,0.0758
16,GGAGGGAA,0.0993
17,CCGATATC,0.254
18,AAGGGCTG,-0.176
19,GAAGATGC,-0.0857
20,ACGCGGTG,0.0206
